Over roughly 5,400 compounds, “IFI” has its median near 2; the highest 2% begin near 22. Some of the results follow.

The test is described as follows: NOVARTIS: Inhibition Frequency Index (IFI) - the number of HTS assays where a compound showed > 50% inhibition/induction, expressed as a percentage of the number of assays in which the compound was tested. Format: functional.
`CCOC(=O)C(=CNc1ccccc1[N+](=O)[O-])C(=O)OCC` returned an IFI of 0%.

On to `O=C1CC(C(=O)N2CCC(c3nc(-c4cccnc4)ncc3-c3ccccc3)CC2)c2ccccc21` (stereo not drawn), for which the IFI worked out at 2.61%.

`Cc1sc2sc(-c3ccccc3)c(N)[n+]2c1C` showed an IFI of 0%.

In turn, `O=C(Cn1c2ccccc2c(=O)c2ccc(Cl)cc21)Nc1cccc(Cl)c1` showed an IFI of 4.82%.

With `COc1ccccc1N1CCN(c2c3c(nc4nncn24)CCC3)CC1`, the IFI came out at 0%.

Consider `Brc1ccc(-c2cn3c([n+]2Cc2ccccc2)SCCC3)cc1`, for which the IFI came to 0%.

In turn, `c1ccc2c(c1)[nH]c1c(NCCN3CCCCC3)ncnc12` gave an IFI of 3.85%.

`Cc1ccc(-c2c3c4n(c(-c5ccc(Cl)cc5)cn4c2C(=O)Nc2ccccc2Cl)CCCC3)cc1` showed an IFI of 6.06%.

Regarding `CCOc1ccc(N2C(=O)C3C4CC(C(Br)C4Br)C3C2=O)cc1` (stereo not drawn), the IFI was determined as 0%.

In turn, `CCOC(=O)C1=C(C)NC2=C(C(=O)CC(c3ccc(Cl)cc3)C2)C1c1ccc(Cl)cc1` (stereo not drawn) yielded an IFI of 3.53%.

On to `c1ccc(-c2ccc(CNc3ccc4cn[nH]c4c3)cc2)cc1`, for which the IFI was 15.4%.

For the compound `COc1cc(OC)c(NC(=O)C2c3ccccc3C(=O)N(CC(C)C)C2c2cccs2)cc1Cl` (stereo not drawn), the IFI stood at 6.06%.

As for `O=C(Cn1c2ccccc2c(=O)c2ccc(Cl)cc21)Nc1ccc(C(F)(F)F)cc1`, the IFI was 3.57%.

As for `CC1CC(N(C(=O)c2ccc(Cl)cc2Cl)c2ccccc2)c2ccccc2N1C(=O)c1ccc(Cl)cc1` (stereo not drawn), the IFI is 2.44%.

For `CCOc1ccc2[nH]c3c(NCCCN(C)C)ncnc3c2c1`, the IFI was determined as 3.33%.

`CC(=O)NCCc1nc2ccccc2n1Cc1ccc(C(C)C)cc1`: the IFI is 0%.

Compound `CCOC(=O)C1=C(C)N=c2sc(=Cc3cc(Br)ccc3O)c(=O)n2C1c1ccccc1` (stereo not drawn) returned an IFI of 1.18%.

Compound `O=C(/C=C/c1c[nH]cn1)N1CCC(n2c(CC3CCCC3)nc3cccnc32)CC1` showed an IFI of 0.971%.

The compound `CC(=O)N(C1=C(N2CCOCC2)C(=O)c2ccccc2C1=O)c1cccc(Cl)c1` yielded an IFI of 0%.

For `Cc1ccnc(Nc2nc(-c3c(C)nc4sccn34)cs2)c1`, the IFI came out at 4.22%.

`O=C(Cc1ccccc1)Nc1ccc(C(=O)Nc2ccc(-c3nc4ccc(NC(=O)c5ccc(NC(=O)Cc6ccccc6)cc5)c(Cl)c4[nH]3)cc2)cc1`: the IFI amounted to 7.58%.

The compound `CSc1cccc(NC(=O)C2C3C=CC4(O3)C2C(=O)N(CCN2CCCCC2)C4C(=O)NC2CCCC(C)C2C)c1` (stereo not drawn) had an IFI of 0%.

For `O=[N+]([O-])c1cc(Cl)c(N2CCOCC2)cc1N1CCOCC1`, the IFI is 1.44%.

`N#C/C(=C\C=C\c1ccc([N+](=O)[O-])o1)c1nc2ccccc2[nH]1` registered an IFI of 28.6%.

`COc1ccc(-[n+]2cc(-c3ccc(Br)cc3)n3c2SCCC3)cc1` returned an IFI of 7.69%.

`CC1CCN(C(=O)C2CCCN(S(=O)(=O)c3ccc4[nH]c(-c5ccccc5)nc4c3)C2)CC1` (stereo not drawn) gave an IFI of 3.12%.

As for `Fc1ccc(CSc2nc3cccnc3[nH]2)cc1`, the IFI turned out to be 0%.

`COC(=O)c1cn([C@H]2C[C@@H](C(=O)NCc3ccc(OC)cc3)N(Cc3ccsc3)C2)nn1` had an IFI of 1.98%.

The compound `Cc1cccc(-c2cc3nc(C)c(C)c(O)n3n2)c1` displayed an IFI of 0%.

With `CCCNC(=O)Cn1nc(C)n2c(cc3sccc32)c1=O`, the IFI is 0%.

The compound `COc1ccc(-c2cc(=O)c3c(O)cc(OC4OC(COC5OC(C)C(O)C(O)C5O)C(O)C(O)C4O)cc3o2)cc1` (stereo not drawn) had an IFI of 0%.

In the case of `CC(=O)Nc1ccccc1OC(F)(F)F`, the IFI turned out to be 2.13%.

For the compound `COc1ccc(-c2c[n+](CC(=O)c3ccc(C)cc3)c3n2CCC3)cc1`, the IFI worked out at 2.38%.

Compound `CC(=O)N(C1=C(N2CCCCC2)C(=O)c2ccccc2C1=O)c1cccc(Cl)c1` yielded an IFI of 7.69%.

For the compound `CCOC(=O)C1=C(C)NC2=C(C(=O)CCC2)C1c1ccc([N+](=O)[O-])cc1` (stereo not drawn), the IFI was determined as 1.14%.

The compound `CCN1/C(=C/C2=CC(=C/c3sc4ccccc4[n+]3CC)/CC(C)(C)C2)C=Cc2ccccc21` returned an IFI of 9.43%.

For `CCCCCCCCCCCC(=O)N(C)CCCNc1ccnc2cc(Cl)ccc12`, the IFI was found to be 2.8%.

Consider `CCCCOc1ccc(C(=O)N(C)CCCNc2ccnc3cc(Cl)ccc23)cc1`, for which the IFI was found to be 2.75%.

`O=C(Nc1nc(-c2ccccc2)cs1)c1ccccc1O` came in with an IFI of 9.79%.

`CCCCCCCC(=O)N1CCN(C(=O)C(NC(=O)Nc2ccc(Cl)cc2Cl)C(C)CC)CC1` (stereo not drawn) returned an IFI of 3.74%.

In turn, `Cc1ccc(S(=O)(=O)NCCCCNc2ccnc3cc(Cl)ccc23)cc1` returned an IFI of 2.1%.

`CCCCN(CCCC)C(=O)Cn1ccc(=N)c2ccccc21` had an IFI of 0%.

Take `COc1ccc2nc3cc(Cl)ccc3c(Nc3ccc(O)cc3)c2c1`: the IFI amounted to 0%.

The compound `COc1ccc(NC2=CC(=O)CC(c3ccccc3)C2)c(OC)c1` (stereo not drawn) returned an IFI of 0%.

As to `COCCSc1nc2sc3c(c2c(=O)n1-c1ccc(OC)cc1)CCN(C)C3`, the IFI was found to be 4.54%.

In turn, `COc1cc(OC)nc(CSc2ccc(NC(=O)CCl)cc2)n1` registered an IFI of 0%.

As to `COc1cccc(-c2ccc(O)c(CNCc3ccccc3OC)c2)n1`, the IFI was 1.75%.

The compound `CCC(C)OC(=O)C1=C(C)NC2=C(C(=O)CC(c3ccc(OC)cc3)C2)C1c1ccc(O)cc1` (stereo not drawn) gave an IFI of 4.54%.

`CC(C)(C)NCC(O)Cn1c2ccc(Cl)cc2c2cc(Cl)ccc21` (stereo not drawn) showed an IFI of 2.4%.

Regarding `O=C(NN=Cc1ccc(O)c(O)c1)/C(=C/c1ccccc1)NC(=O)c1ccccc1`, the IFI came to 0%.

`O=C(O)Cn1cnc2nc3n(c2c1=O)CCC3`: the IFI was 0%.

For `O=C(CCC1CCCC1)NCCCCNc1ccnc2cc(Cl)ccc12`, the IFI was 1.87%.

`COc1ccc(N=C2NC(=O)/C(=C\c3ccc(N(C)C)cc3)S2)cc1` gave an IFI of 3.49%.

In the case of `CN(C)CCN1CCN(c2cccc(-c3cccc4cccnc34)n2)CC1`, the IFI came to 4%.

`C=CCN1C(=O)/C(=C2/Sc3ccc(OC)cc3N2C)SC1=Nc1ccccc1-c1ccccc1` showed an IFI of 0%.

`CCCOC(=O)C1=C(C)NC2=C(C(=O)CC(c3ccc(Cl)cc3)C2)C1c1ccc(Cl)cc1` (stereo not drawn): the IFI was 2.35%.

As to `C=CCSc1nc(Sc2ccc(Cl)cc2)c2sc3ccccc3c2n1`, the IFI is 1.33%.

The compound `Oc1ccc(Cl)cc1CNc1nc2ccccc2[nH]1` returned an IFI of 0%.

Consider `N=c1n(Cc2ccccc2)c2ccccc2n1CC(O)c1ccc(Cl)cc1` (stereo not drawn), for which the IFI was 4%.

For `Oc1ccccc1Nc1nc(NC2CCCC2)c2ccccc2n1`, the IFI came to 0%.

In the case of `S=C(NN=Cc1ccccn1)NC1CC2C=CC1C2` (stereo not drawn), the IFI came out at 19.7%.

For the compound `COc1ccc(-n2c(S)nnc2CNc2cccc(C(F)(F)F)c2)cc1`, the IFI was found to be 1.7%.

As for `Cc1ccccc1Cn1c(N2CCC(C(=O)NCc3ccccn3)CC2)nc2ccccc21`, the IFI worked out at 0%.

Take `CC(C)(c1ccc(Oc2ccc(NC(=O)c3ccccc3)cc2)cc1)c1cccc(Oc2ccc(NC(=O)c3ccccc3)cc2)c1`: the IFI turned out to be 0%.

On to `Cc1cccnc1NC(=O)CCCC(=O)O`, for which the IFI came out at 0%.

Take `Cc1cc(C(C)(C)C)cc(S(=O)(=O)NCCO)c1C`: the IFI came out at 2.98%.

`c1ccc2[nH]c(CN(Cc3nc4ccccc4[nH]3)Cc3nc4ccccc4[nH]3)nc2c1` yielded an IFI of 13.7%.

The compound `CN(C)[C@@H]1CCN(Cc2cccc(Cl)c2)C[C@@H]1CCC(=O)NCCCN1CCOCC1` came in with an IFI of 1.82%.

`CCOC(=O)NN=C1C=C2C=CC3C(CC[C@@]4(C)C3CC3CCCCC34C(C)=O)[C@@]2(C)CC1` (stereo partly drawn): the IFI is 0%.

`COc1ccc(C2CC(=O)C3=C(C2)NC(C)=C(C(=O)OC2CCCC2)C3c2ccc(SC)cc2)cc1OC` (stereo not drawn) registered an IFI of 5.88%.

In turn, `COc1nc(NC(=N)N)nc2ccc(C)cc12` returned an IFI of 6.06%.

The compound `COc1ccc(C2(C(=O)NCc3ccccc3Cl)CCCC2)cc1OC` displayed an IFI of 0%.

`CC(C)CNC(=O)c1cnc(NCCCN2CCCCC2C)nc1NC1CCCC1` (stereo not drawn) had an IFI of 1.91%.

Compound `O=C(COC(c1ccccc1)c1c(Cl)cncc1Cl)N1CCC(c2ccccn2)C1` (stereo not drawn) displayed an IFI of 0.971%.

Compound `COc1ccc(Nc2ncnc3[nH]c(-c4cccc([N+](=O)[O-])c4)cc23)cc1` displayed an IFI of 7.14%.

As for `Cc1cccc(Nc2nc3nonc3[nH]c2=NN=Cc2cccs2)c1C`, the IFI was 0%.

`NC(=O)C1CCN(S(=O)(=O)c2cc(Br)c(Br)s2)CC1` returned an IFI of 7.14%.

Compound `CCOc1ccc(C(=O)N2CCN(Cc3ccccc3)CC2)cc1` registered an IFI of 0%.

As for `NC(=S)NN=CC(=NNC(N)=S)c1ccccc1`, the IFI came out at 11%.

For `OC(Cn1nnc2ccccc21)Cn1c2ccc(Br)cc2c2cc(Br)ccc21` (stereo not drawn), the IFI was 2.01%.

Turning to `COc1ccc(-n2c(SCC(=O)Nc3cc(Cl)ccc3OC)nnc2-c2ccccc2)cc1`, the IFI stood at 4.42%.

`COc1cc(NC(=O)Cn2c3ccccc3c(=O)c3ccccc32)cc(OC)c1OC` yielded an IFI of 3.61%.

Consider `Clc1ccc2c(c1)c1cc(Cl)ccc1n2CC1CO1` (stereo not drawn), for which the IFI turned out to be 17%.

`O=C(c1c2c(nc3ccccc13)CCC2)N1CCc2ccccc21` yielded an IFI of 2.86%.

`CN(C=Cc1sc2ccc3ccccc3c2[n+]1C)c1ccccc1` showed an IFI of 9.09%.

Turning to `COC(=O)c1c(-c2c(F)cccc2Cl)noc1/C=C/Nc1ccc(OC)cc1`, the IFI is 3.95%.

In turn, `Nc1nc(N)c2nc(CCc3ccc(C(=O)N[C@H](CCC(=O)O)C(=O)O)cc3)cnc2n1` came in with an IFI of 16%.

In the case of `CC(NS(=O)(=O)c1ccccc1)C(c1cccs1)N1CCN(c2ccccc2F)CC1` (stereo not drawn), the IFI came out at 6.06%.

Consider `CC[C@H](C)C[C@H]1CC[C@](O)([C@](C)(O)C(=O)N[C@@H]2C(=O)N3NCCC[C@@H]3C(=O)N(O)[C@@H](C)C(=O)NCC(=O)N3NCCC[C@H]3C(=O)N(O)[C@H](C)C(=O)O[C@H]2C(C)C)O[C@@H]1C`, for which the IFI amounted to 34.4%.

In the case of `CCCn1c(C(CC)N2CCNCC2)nc2ccccc2c1=O` (stereo not drawn), the IFI was 2.8%.

`CC1CC(C)CN(CCCNc2ccc(C(=O)Nc3ccc(C(F)(F)F)cc3)cc2[N+](=O)[O-])C1` (stereo not drawn): the IFI turned out to be 0%.

Consider `CCOC(=O)C1=C(C)NC2=C(C(=O)CC(c3ccc(OC)c(OC)c3)C2)C1c1cccc(Br)c1` (stereo not drawn), for which the IFI was determined as 2.35%.

As to `COc1ccc(NC(=O)c2cc3cc(C4(O)CCN(CC(C)c5ccccc5)CC4)ccc3o2)cc1` (stereo not drawn), the IFI came out at 3.92%.

Consider `Cc1cccc(NC(=O)c2ccc(NCCCC3CCCCCC3)c([N+](=O)[O-])c2)c1`, for which the IFI stood at 0%.

The compound `OC1=C2C(=Nc3ccccc3SC2c2cccs2)c2ccccc21` (stereo not drawn) yielded an IFI of 2.27%.

The compound `CCN(c1ccc(OC)cc1)S(=O)(=O)c1ccc(C)cc1` registered an IFI of 0%.

As to `Cc1c(/C=C2\SC(=Nc3ccccc3F)N(C3CCCCC3)C2=O)c2ccccc2n1CC(N)=O`, the IFI is 2.44%.

Compound `CC1CCCCN1CCCNc1ncc(C(=O)NCCCN2CCCC2=O)c(NCC2CCCCC2)n1` (stereo not drawn) gave an IFI of 3.92%.
